# Measured values from PMC4336329 (PLoS ONE, 2015).
# About 14,000 (4.5%) of roughly 310,000 compounds showed an effect of 50% or more. The effect is printed as a negative number. The list shows a part of the results.
# Target: human ether-à-go-go-related gene (hERG) potassium channel (human, UniProt Q12809)
# Experiment: primary screen, population patch clamp on CHO cells stably expressing hERG
# 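Note: peak tail current of the secondary pulse compared with the same well before compound.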
# human ether-à-go-go-related gene (hERG) potassium channel, sequence (Q12809 whole entry, looked up): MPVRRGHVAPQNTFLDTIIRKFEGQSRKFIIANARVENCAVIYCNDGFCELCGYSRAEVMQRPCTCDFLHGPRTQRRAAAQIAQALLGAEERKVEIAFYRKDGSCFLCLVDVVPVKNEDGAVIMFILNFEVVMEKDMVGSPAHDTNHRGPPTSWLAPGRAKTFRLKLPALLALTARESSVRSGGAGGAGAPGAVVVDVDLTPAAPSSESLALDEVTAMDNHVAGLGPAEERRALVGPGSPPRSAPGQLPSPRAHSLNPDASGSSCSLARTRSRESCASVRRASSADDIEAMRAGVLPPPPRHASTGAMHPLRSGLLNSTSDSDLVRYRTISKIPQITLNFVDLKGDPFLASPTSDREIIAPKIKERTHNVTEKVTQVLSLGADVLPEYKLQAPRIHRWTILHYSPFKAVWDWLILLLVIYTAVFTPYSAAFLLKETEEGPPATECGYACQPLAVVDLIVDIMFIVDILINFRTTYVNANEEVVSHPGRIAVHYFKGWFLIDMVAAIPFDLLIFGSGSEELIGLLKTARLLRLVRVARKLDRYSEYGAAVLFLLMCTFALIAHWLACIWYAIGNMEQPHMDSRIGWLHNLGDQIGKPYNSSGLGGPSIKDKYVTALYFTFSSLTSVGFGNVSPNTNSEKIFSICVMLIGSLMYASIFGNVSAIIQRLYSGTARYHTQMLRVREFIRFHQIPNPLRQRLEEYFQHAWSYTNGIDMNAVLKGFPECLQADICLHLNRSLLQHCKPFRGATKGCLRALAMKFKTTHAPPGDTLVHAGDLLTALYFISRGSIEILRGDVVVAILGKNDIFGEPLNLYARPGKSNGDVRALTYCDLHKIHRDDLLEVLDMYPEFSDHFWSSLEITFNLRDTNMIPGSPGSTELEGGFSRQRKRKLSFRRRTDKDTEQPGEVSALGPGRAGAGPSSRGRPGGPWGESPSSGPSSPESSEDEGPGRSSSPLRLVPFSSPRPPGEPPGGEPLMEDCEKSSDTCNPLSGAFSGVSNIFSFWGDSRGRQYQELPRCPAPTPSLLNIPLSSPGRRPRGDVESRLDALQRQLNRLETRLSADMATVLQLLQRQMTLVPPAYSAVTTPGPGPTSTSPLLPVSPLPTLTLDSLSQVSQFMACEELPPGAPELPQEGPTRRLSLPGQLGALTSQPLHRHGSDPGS
row,SMILES,"hERG current change (%, negative = inhibition) at 10uM [%]"
1,CC(OC(=O)CNC(=O)c1ccc(Br)cc1)C(=O)NC1CCCCC1C (stereo not shown),-3.19
2,Cc1ccc(C(=O)NCCSCc2ccc(Cl)cc2Cl)cc1[N+](=O)[O-],-13.3
3,COc1ccc(/C=C(\C#N)C(=O)NCCc2ccccc2)cc1OCc1ccccc1,-10.9
4,COc1ccc(C(C(=O)NC(C)(C)C)N(CC2CCCO2)C(=O)CCC(=O)Nc2cc(C)on2)cc1 (stereo not shown),6.44
5,Cc1nn(C)c(C)c1S(=O)(=O)N1CCC(CO)(CC2CCCCO2)CC1 (stereo not shown),11.9
6,CCOc1cc(C(=O)N=c2sccn2C)ccc1OC(F)F,21.5
7,Cc1ccc(Nc2nc(CSc3nnc(-c4ccccc4)n3C)cs2)cc1,-35.2
8,CCc1ccc(NC(=S)Nc2cccc(OC)c2)cc1,6.52
9,Cc1ccc(-n2c(C3CC3c3ccc(Cl)cc3)n[nH]c2=S)cc1 (stereo not shown),9.71
10,COc1ccc(N2C(=O)/C(=C\c3ccco3)N=C2SCC(=O)NC(C)C)cc1Cl,4.42
11,CCOC(=O)N1CCN(CC(=O)Nc2ccc(F)cc2)CC1,-82
12,OC1(c2ccccc2)Cc2cccc[n+]2C1c1ccccc1.[Br-] (stereo not shown),11.6
13,COc1ccc(C(=O)NCc2csc(-c3cccs3)n2)cc1,-13.8
14,CC1CCN(S(=O)(=O)c2cccc(C(=O)NC3CCCCC3)c2)CC1,5.82
15,O=C(NCCCN1CCCC1=O)C1CCCO1 (stereo not shown),17.7
16,CCN1CCc2nc3sc(C(=O)Nc4cccnc4Cl)c(N)c3cc2C1,-13.6
17,Cc1ccc(-c2nc(NC(=O)CSc3ncn[nH]3)ns2)cc1,-14.3
18,Cc1ccnc2nc(C(=O)OCC(=O)Nc3ccc([N+](=O)[O-])cc3Br)nn12,-11.8
19,O=C1CN(S(=O)(=O)c2ccccc2)CCN1S(=O)(=O)c1ccccc1,12.6
20,N#Cc1ccc(CSc2nnc(NC(=O)c3ccc(=O)[nH]c3)s2)cc1,3.51
21,CC(C)Oc1ccc(C(=O)N2CCCc3ccccc32)cc1,-18.1
22,CN(CC(=O)NCCc1ccccc1)S(=O)(=O)c1cccc2nsnc12,-15.8
23,COc1ccc2c(c1)CCc1sc(NC(=O)c3ccc(C)cc3)nc1-2,10.9

row,SMILES,"hERG current change (%, negative = inhibition) at 10uM [%]"
1,CN(C)c1cccc(C(=O)Nc2ccc(N3CCOCC3)cc2)c1,2.06
2,CCOC(=O)c1ccccc1NC(=O)CSc1nnc(COc2ccccc2C)n1C,-48.6
3,O=C(O)c1nn(CCOc2cccc(Br)c2)c(=O)c2ccccc12,-14.4
4,COc1ccc(C(=O)NNC(=O)Cc2ccc(Cl)cc2)cc1,-8.42
5,CCNC(=O)C(=O)NCC(c1ccc2c(c1)OCO2)N1CCOCC1 (stereo not shown),8.97
6,O=C1CC(C2CCCO2)C(=O)N1c1ccccc1 (stereo not shown),11
7,NCC1(CC(=O)O)CCCCC1,10.8
8,COc1ccc(NC(=O)CC2SC(=Nc3ccccc3)NC2=O)c(OC)c1 (stereo not shown),4.43
9,C/C(=N\NC(=O)C1CC1c1ccccc1)c1cccs1 (stereo not shown),-7.37
10,COCCn1c(=S)[nH]c2cc(C(=O)N3CCN(c4cccc(Cl)c4)CC3)ccc2c1=O,-47.8
11,COC(=O)c1cc(S(=O)(=O)N2CCCCCC2)c[nH]1,0.97
12,O=C(OCc1nc2ccsc2c(=O)[nH]1)c1ccco1,20.6
13,COc1ccc(S(=O)(=O)N2CCN(Cc3ccccc3)CC2)cc1,-19.5
14,COc1ccc(-n2nc(C(=O)NCC(=O)NC3CCCCC3)c3ccccc3c2=O)c(OC)c1,10.5
15,CN(C(=O)Nc1ccccc1)C1CCCCC1,10.2
16,Cc1ccc(C(=O)ONC(=O)c2ccc(Cl)cc2)cc1[N+](=O)[O-],2.37
17,CCCc1cc(-c2n[nH]c(=S)n2CC)c2ccccc2n1,9.23
18,CCOC(=O)CSc1nnc(NC(=O)c2cccc(S(=O)(=O)N3CCCC3)c2)s1,5.27
19,CCCCNC(=O)CSc1ccc(S(=O)(=O)N2CCOCC2)cn1,-2.1
20,O=S(=O)(c1ccc(S(=O)(=O)N(Cc2cccs2)CC2CCCO2)cc1)N1CCCCC1 (stereo not shown),-16.1
21,CC(C)(C)n1nc2c(c1NC(=O)Cc1ccccc1)CS(=O)(=O)C2,16.1
22,CN(C)S(=O)(=O)NCc1ccc2c(c1)OCO2,14.3
23,COC(=O)N/N=C/c1ccc(-c2ccc(C)c(Cl)c2)o1,-6.4

row,SMILES,"hERG current change (%, negative = inhibition) at 10uM [%]"
1,Cc1cc(NC(=O)c2cc3ncc(Br)cn3n2)no1,20.3
2,CC(=O)c1cccc(NC(=O)N2CCCC2C(=O)NCCc2ccccc2)c1 (stereo not shown),-7.07
3,Cc1ccc(C2(O)CN(c3ccccc3)C3=[N+]2CCS3)cc1.[Br-] (stereo not shown),-32.6
4,Cc1cccn2cc(CNS(=O)(=O)c3ccc4ccccc4c3)nc12,-16.1
5,C=CCn1c(C)cc(C(=O)Cn2c(C(C)O)nc3ccccc32)c1C (stereo not shown),12.4
6,CC(C)COP(=O)(CNC(=O)CN1C(=O)c2ccccc2S1(=O)=O)OCC(C)C,16.7
7,CCCP(=O)(CC(=O)N(CC)CC)c1ccccc1 (stereo not shown),12
8,Cc1ccc(/C=C2\SC(=S)N(CCCC(=O)NC3CCCC3)C2=O)cc1,1.4
9,CC(C)(C)Nc1nc(SCC(=O)Nc2ccccc2Cl)nc(N2CCOCC2)n1,-3.42
10,Cc1cc(OCC(O)CNC(C)(C)C)ccc1Cl.Cl (stereo not shown),-4.91
11,O=C1NC(=O)N(Cc2ccco2)C(=O)/C1=C\c1cccn1CCOc1ccccc1,9.91
12,CC(C)NS(=O)(=O)c1ccc(Oc2ncc(C(F)(F)F)cc2Cl)cc1,16.4
13,Cc1cc(Nc2ccc3c(c2)OCCO3)c2cc(Cl)ccc2n1.Cl,-52.6
14,COc1ccc(S(=O)(=O)N2CCN(C(=O)c3ccc(C)o3)CC2)cc1,-5.16
15,Cc1ccc(Nc2nc(N/N=C\c3ccc4c(c3)OCO4)nc(N3CCOCC3)n2)cc1,-6.98
16,CCN(Cc1ccccc1)c1ccc(/C=N/N=C(N)N)cc1,-25
17,CCOc1cccc(/C=N/NC(=O)c2cc(C3CC3)[nH]n2)c1O,5.91
18,O=C(NNC1CC(=O)N(c2ccc(Br)cc2)C1=O)c1cccnc1 (stereo not shown),5.53
19,CC(C)CC(=O)N1CCN(Cc2ccc(C(F)(F)F)cc2)CC1,-1.3
20,CCCNC(=O)c1ccccc1NC(=O)Nc1ccccc1C,8.18
21,N#CC1=C(N)NC(SCC(=O)Nc2ccc(Br)cc2)=C(C#N)C12CCCCC2,13.4
22,CC(C)/C=N/NC(=O)c1ccc(Cl)cc1,13.4
23,Cc1nn(-c2ccccc2)c(C)c1NC(=O)COC(=O)/C=C/c1ccccc1,4.01

row,SMILES,"hERG current change (%, negative = inhibition) at 10uM [%]"
1,Cc1ccc(SCC(=O)Nc2ccc(-c3nc4ccccc4[nH]3)cc2)cc1,5.17
2,COc1ccccc1N1CCN(CCN2C(=O)C3CCCCN3C2=O)CC1 (stereo not shown),4.39
3,CC1CCCN(CC(O)COC(c2ccccc2)c2ccccc2)C1 (stereo not shown),-65
4,CCc1ccc(-c2cn3nc(-c4ccccc4)cnc3n2)cc1,-0.423
5,Cc1nnsc1SC(C)C(=O)O (stereo not shown),9.82
6,Cc1ccc(-c2cn3cccnc3n2)cc1NC(=O)c1ccc(Br)o1,0.84
7,Cc1ccc(F)cc1NC(=O)CCNC(=O)c1ccc([N+](=O)[O-])cc1,-2.22
8,C/C(=N/NS(=O)(=O)c1ccc(C)cc1)c1ccc(NC(=O)C(F)(F)F)cc1,10.7
9,CCOC(=O)C(=O)N1CCC(C(=O)OCC)CC1,1.19
10,CCOC(=O)C(=O)Nc1ccccc1C(=O)Nc1ccc(OC)cc1,8.93
11,CCC(=O)N1CCc2cc(S(=O)(=O)NCCC(=O)N3CCN(c4ccccn4)CC3)ccc21,-4.4
12,CSc1cccc(NC(=S)NC(=O)CCc2ccccc2)c1,18.8
13,O=C(Nc1cnccn1)Nc1cccc(Cl)c1Cl,20.1
14,COc1ccc(C)cc1-n1nnnc1SCC(=O)N1CCC(C(=O)Nc2nccs2)CC1,-44.6
15,Nc1ccn(CC(=O)NCc2ccc3c(c2)OCO3)c(=O)n1,7.13
16,O=C(CSc1nnc(SCc2ccccc2)s1)N/N=C/C=C/c1ccco1,-14
17,O=C(OC1CCOC1=O)C1CCN(S(=O)(=O)c2ccc(Cl)c(C(F)(F)F)c2)CC1 (stereo not shown),5.27
18,Cc1ccc(C(=O)NCC(=O)NC2CCC(C)CC2)s1 (stereo not shown),2.47
19,O=C(NCC(=O)N(Cc1ccco1)C(C(=O)NC1CCCCC1)c1cccnc1)c1cccs1 (stereo not shown),-3.27
20,COc1ccc(Cl)cc1NC(=O)CSc1nnc(CNC(=O)c2ccco2)o1,-28.7
21,CCN(CC)c1ccc(/C=N/NC(=O)CNC(=O)c2ccccn2)cc1,-28.6
22,Cn1nnc(NC(=S)NC(=O)c2ccco2)n1,13.1
